From paper PMC6212790
The other results are listed elsewhere or left out. At the low end of the ranking, values are background and their order means little.

Target: T1, GST-Rok (full length) (UniProt O34857)
T1 sequence: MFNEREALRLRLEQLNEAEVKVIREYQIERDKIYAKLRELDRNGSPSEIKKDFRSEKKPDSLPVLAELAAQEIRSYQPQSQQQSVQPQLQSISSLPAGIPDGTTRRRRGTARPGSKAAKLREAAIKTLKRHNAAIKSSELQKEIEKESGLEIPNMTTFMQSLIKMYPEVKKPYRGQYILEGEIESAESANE
Test: protein binding microarray;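 note: rank score from −0.5 (least bound) to 0.5 (best bound)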
Settings: Rok is a gene silencer of Bacillus subtilis; high values mean tight binding; most listed sequences are background and not binding sites; double strand, one strand shown

Row | Sequence | binding signal [E-score]
1 | CGATATAA | 0.357
2 | TAAGATGA | 0.13
3 | TCTCAACA | 0.123
4 | ACGGTCTC | -0.186
5 | GCCGTACC | -0.204
6 | TAGGCGCA | -0.0478
7 | AAACAAAA | -0.042
8 | AGTACAAT | 0.217
9 | AACGTAAT | 0.0894
10 | CGATTTGA | -0.0184
11 | GTTGGGCA | -0.0884
12 | CGTCTACA | 0.151
13 | CATTGTGA | 0.0884
14 | GAGGGGGA | -0.355
15 | GAACAGTA | 0.264
16 | ACTGGACA | 0.0236
17 | GAACTGGA | -0.103
18 | AAAAGCGT | -0.296
19 | CTTTTGTC | -0.121
20 | ATGTTCTA | 0.269
21 | AGAATTAA | 0.184
22 | ACAGGCCA | -0.114

Row | Sequence | binding signal [E-score]
23 | AGTTCGTA | 0.23
24 | ATGATACA | 0.28
25 | CCCGTCGA | -0.315
26 | AGTGAGCG | -0.0932
27 | GAGTTAAA | 0.12
28 | AGACCGAA | -0.255
29 | AACTGACT | -0.0534
30 | TCTCCGAA | 0.0924
31 | CAGTTATC | 0.139
32 | ACCGGGAC | -0.156
33 | AAACGAGC | -0.22
34 | CGTCTTAC | -0.209
35 | AATCGACC | 0.155
36 | AGGGTGGC | -0.384
37 | CCTGTAGA | 0.0279
38 | AGGGTATA | 0.0982
39 | ACGTTTTC | 0.19
40 | CGTGTCAC | 0.0368
41 | ACTACCTG | 0.222
42 | AGCCGATG | -0.0522
43 | AGGTTAGG | -0.108
44 | GTCGGGAA | -0.326

Row | Sequence | binding signal [E-score]
45 | CAACACAG | -0.0484
46 | CCTAGACC | -0.289
47 | AACGATAT | 0.272
48 | CTTACTTC | 0.06
49 | AGGGTGCA | -0.131
50 | ACTCAGCC | -0.076
51 | ACCCGTCA | -0.275
52 | CAAGATCA | 0.0932
53 | AGCTGCGC | -0.217
54 | TCTTGTCA | -0.133
55 | CCGTATCA | -0.0296
56 | AACATGGC | -0.112
57 | CAGGCTGG | -0.14
58 | AATGAATA | 0.174
59 | CCTGAAAA | -0.19
60 | GCGATGGA | 0.0109
61 | AAGAATCA | 0.133
62 | AAAGACCT | -0.067
63 | CTCAGGGA | -0.16
64 | CTCCACAC | 0.0329
65 | ATGGGGTA | -0.0198
66 | CGTCGAGA | -0.0959

Row | Sequence | binding signal [E-score]
67 | CCAGGACC | -0.246
68 | GTCCCTTA | -0.163
69 | ATATACAG | 0.282
70 | CTGCATGC | -0.13
71 | ACCGTTCC | -0.00401
72 | GCGGGCGA | -0.388
73 | CATTCATC | 0.0485
74 | GTGGGGGA | -0.325
75 | GCCTATAC | 0.135
76 | TATGGAAA | 0.119
77 | CCGACCTA | 0.0265
78 | AGGGTTGA | -0.227
79 | GAGTCCCA | -0.212
80 | AGATGTAC | 0.315
81 | CGCCCCAC | -0.433
82 | TCGAGCGA | 0.0435
83 | CAATTCAC | -0.00115
84 | AACTTTAG | -0.037
85 | CGATGTGA | 0.00829
86 | TGCTACCA | 0.152
